Results taken from patent US11077078B2, “Compositions and methods for the treatment of cancer” (KoDiscovery, LLC, priority 2006, dated 2021).
Where two headings read alike, the source gives them in different places.

Legend:
human lung cancer cells [1] = test system: human lung cancer cells
human lung cancer cells [2] = assay: cells; settings: 24 h, read-out: Inhibition of Cell Proliferation, %

Structure (SMILES) | inhibition at 50 µM (human lung cancer cells [2]) | other results
O=C(O)C(=O)CBr [3-Bromopyruvate, 3-bromopyruvate] |  | Inhibition of Cell Proliferation, % (human lung cancer cells [1]; 50 µM): 92.5%
O=c1[nH]cc(F)c(=O)[nH]1 [5-Fluorouracil] | 17.8% | 
N.N.O=C([O-])C1(C(=O)[O-])CCC1.[Pt+2] [Carboplatin] |  | Inhibition of Cell Proliferation, % (human lung cancer cells [1]; Anticancer agent at 50 μM, for 24 hrs): 4.5%
O=P1(N(CCCl)CCCl)NCCCO1 (stereo not shown) [Cyclophosphamide] | 0% | 
COc1cccc2c1C(=O)c1c(O)c3c(c(O)c1C2=O)C[C@@](O)(C(=O)CO)C[C@@H]3O[C@H]1C[C@H](N)[C@H](O)[C@H](C)O1 [Doxorubicin] | 39.6% | 
CN(Cc1cnc2nc(N)nc(N)c2n1)c1ccc(C(=O)N[C@@H](CCC(=O)O)C(=O)O)cc1 [Methotrexate] | 28% | 
CC(=O)O[C@H]1C(=O)[C@@]2(C)[C@H]([C@H](OC(=O)c3ccccc3)[C@]3(O)C[C@H](OC(=O)[C@H](O)[C@@H](NC(=O)c4ccccc4)c4ccccc4)C(C)=C1C3(C)C)[C@]1(OC(C)=O)CO[C@@H]1C[C@@H]2O [Paclitaxel] | 0% | 
